This is one part of the list. At the low end of the ranking the order means little. Measured with an extract: partners may take part in the binding.

The target of this assay is T1, HNF4alpha2 (COS-7 nuclear extract) (UniProt P41235).
T1 sequence: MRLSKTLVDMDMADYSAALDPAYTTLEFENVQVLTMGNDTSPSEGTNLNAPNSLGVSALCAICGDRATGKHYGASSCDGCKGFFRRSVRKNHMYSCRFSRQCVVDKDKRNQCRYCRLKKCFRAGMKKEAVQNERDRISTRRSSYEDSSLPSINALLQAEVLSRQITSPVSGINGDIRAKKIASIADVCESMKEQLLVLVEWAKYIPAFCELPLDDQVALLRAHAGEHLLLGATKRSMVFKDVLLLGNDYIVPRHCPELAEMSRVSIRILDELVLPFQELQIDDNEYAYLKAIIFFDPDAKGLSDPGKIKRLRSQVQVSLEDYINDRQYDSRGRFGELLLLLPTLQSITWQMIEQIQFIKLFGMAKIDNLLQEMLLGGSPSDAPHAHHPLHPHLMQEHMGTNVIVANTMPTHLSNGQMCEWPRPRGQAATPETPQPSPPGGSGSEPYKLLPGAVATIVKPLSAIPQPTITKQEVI
The assay is described as follows: protein-binding microarray. To be noted: COS-7 nuclear extract on double-stranded Agilent 4x180k PBM; binding buffer, salt, pH and temperature not given; high values mean tight binding; double strand, one strand shown; sequences stand for … in …GCCTAGGGAGATTAGAGTATCGGTCGA
As for GCCAAAAGTAGGGAGGAGGGGAGGGGCCCA, the binding signal (log2 normalized intensity) was -1.24.
With ACCGCTCACTGCTCCAGCCACTCATTCTTG the figure was -1.14.
In the case of CAGGCCCCAGGGACTTTGGCCTTACTTGGC, the binding signal (log2 normalized intensity) is 4.14.
As for ACAAATGAGCAAACTAATGGAATGTGATAG, the figure is -1.08; as for AGCCAATATTTGCAAGGCTGTTGGCAGATT, -1.16; as for CCTGAGGCTGTGGAGGGCAGTGGATGGGGG, -1.19.
Take CCTTTACCCTGACCTGTCAAGCAATGATCT: the binding signal (log2 normalized intensity) worked out at 1.25.
CCCCTCAGTTTTTCTCTTTTGACCTTTGGA: the binding signal (log2 normalized intensity) is 8.9.
As for AAGTCCAGTCTTATCTGAGACTCAAGGCAA, the figure is -0.968.
Turning to AAACAAATTTAGCAAGACTGCAAAATAGAC, the binding signal (log2 normalized intensity) is -1.13.
In the case of AGGGATGGGAACCGACCTTTGGTTCCTGAA, the binding signal (log2 normalized intensity) worked out at 4.79.
Regarding TTCCAGGATGAAGGAAGAGGGAAGACCAAA, the binding signal (log2 normalized intensity) was -0.968.
With TTTCATCTTCTTAGCCTTTGAACCCCACAC the figure was 4.78; with CTTCACATATTTTGAAAGAAAGAGACCTTT, 3.75.
Consider GATAGCTCAGGGATTAACGACTCATGAAGA, for which the binding signal (log2 normalized intensity) was -1.1.
With ATTTACATTCCAGAGTAAACGTTTCTCTCT the figure was -1.15.
With CCAAAGGGCATTCTGGAGTTTGGAACCAAA, the binding signal (log2 normalized intensity) turned out to be 3.38.
As to ATTTAGCCTTTAACCTGCAGTTTCCCTATT, the binding signal (log2 normalized intensity) was -0.0478.
With ACACTCCCATCTGCCATCAGTATCCCAGTT the figure was 0.905.
Consider ACTTTGGACCTTTGTGTGTGTGTGTGTGTG, for which the binding signal (log2 normalized intensity) worked out at 3.6.
As to CTTTATACCTGTACGTTACTCTGTACCTCG, the binding signal (log2 normalized intensity) was 1.19.
As to GATCATGATTATAAACCTGCCTACATCAAG, the binding signal (log2 normalized intensity) is -1.05.
As for TCCAAAGTCCTTCTAAAGCAAATTTATAGG, the binding signal (log2 normalized intensity) is 0.432.
Regarding CTGTCAAGTCCAAAGTTCTTGGCCAGGCAT, the binding signal (log2 normalized intensity) came out at 2.5.
Regarding TGGTTTAGATAAGCACTTCAAAGGTCGTGT, the binding signal (log2 normalized intensity) was determined as 2.92.
In the case of GGGACTTCAAAGGCTCCCCTAATCCCTGTG, the binding signal (log2 normalized intensity) is -0.798.
For the sequence AAATCACACGAAACAAGTAGCAGTTCAAAA, the binding signal (log2 normalized intensity) was -1.08.
For the sequence ATGTTCCATGTTAGGGGTTTGTCCAAGAAA, the binding signal (log2 normalized intensity) is 1.65.
With TAAGACAACTTTCTCCTCCAGGACCTTGCC, the binding signal (log2 normalized intensity) was -1.07.
As for ACCCCCCACTCTTCATATCTTCCCATACTG, the figure is 1.48.
TAGGTATGATAACCCCCGTCACTGCAAGGC: the binding signal (log2 normalized intensity) was found to be 3.56.
ACTTGCCACGGAATCCCAGTTCTGATACAC: the binding signal (log2 normalized intensity) is -1.13.
In the case of TTCAGAAGACTTCCTGGCCTCTCTGCAAAT, the binding signal (log2 normalized intensity) is -0.756.
Turning to ACCTGCCTAACATTCTCTAATCAGGTCGCT, the binding signal (log2 normalized intensity) was -1.15.
Take ATTAACTAACCTTTGAACCAGATGGCCCTC: the binding signal (log2 normalized intensity) was determined as 3.62.
In the case of GAAGCCAGGGGTAAGTTTCTAACTACCATG, the binding signal (log2 normalized intensity) was -1.19.
For the sequence CAGGGGGAGGCTCAGAGTCTGTGGAGACAC, the binding signal (log2 normalized intensity) was -1.16.
With ACTTATTACCGGTGTGACTTTGGTTGGATT, the binding signal (log2 normalized intensity) was 1.93.
Take ATGCCTGGGGTTCCAGTTACTGGAGGCTGG: the binding signal (log2 normalized intensity) is -0.725.
For ACTGACAGAGATCAAAAACCAAAGCTGGAG, the binding signal (log2 normalized intensity) was -1.08.
